Data published in PMC4336329 (PLoS ONE, 2015).
The whole screen tested about 310,000 compounds, of which about 14,000 (4.5%) showed an effect of 50% or more. The effect is printed as a negative number. The list shows a part of the results.

Molecular target: human ether-à-go-go-related gene (hERG) potassium channel (human, UniProt Q12809)
Assay: primary screen, population patch clamp on CHO cells stably expressing hERG
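Note: peak tail current of the secondary pulse compared with the same well before compound.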

Sequence of human ether-à-go-go-related gene (hERG) potassium channel (Q12809 whole entry, looked up): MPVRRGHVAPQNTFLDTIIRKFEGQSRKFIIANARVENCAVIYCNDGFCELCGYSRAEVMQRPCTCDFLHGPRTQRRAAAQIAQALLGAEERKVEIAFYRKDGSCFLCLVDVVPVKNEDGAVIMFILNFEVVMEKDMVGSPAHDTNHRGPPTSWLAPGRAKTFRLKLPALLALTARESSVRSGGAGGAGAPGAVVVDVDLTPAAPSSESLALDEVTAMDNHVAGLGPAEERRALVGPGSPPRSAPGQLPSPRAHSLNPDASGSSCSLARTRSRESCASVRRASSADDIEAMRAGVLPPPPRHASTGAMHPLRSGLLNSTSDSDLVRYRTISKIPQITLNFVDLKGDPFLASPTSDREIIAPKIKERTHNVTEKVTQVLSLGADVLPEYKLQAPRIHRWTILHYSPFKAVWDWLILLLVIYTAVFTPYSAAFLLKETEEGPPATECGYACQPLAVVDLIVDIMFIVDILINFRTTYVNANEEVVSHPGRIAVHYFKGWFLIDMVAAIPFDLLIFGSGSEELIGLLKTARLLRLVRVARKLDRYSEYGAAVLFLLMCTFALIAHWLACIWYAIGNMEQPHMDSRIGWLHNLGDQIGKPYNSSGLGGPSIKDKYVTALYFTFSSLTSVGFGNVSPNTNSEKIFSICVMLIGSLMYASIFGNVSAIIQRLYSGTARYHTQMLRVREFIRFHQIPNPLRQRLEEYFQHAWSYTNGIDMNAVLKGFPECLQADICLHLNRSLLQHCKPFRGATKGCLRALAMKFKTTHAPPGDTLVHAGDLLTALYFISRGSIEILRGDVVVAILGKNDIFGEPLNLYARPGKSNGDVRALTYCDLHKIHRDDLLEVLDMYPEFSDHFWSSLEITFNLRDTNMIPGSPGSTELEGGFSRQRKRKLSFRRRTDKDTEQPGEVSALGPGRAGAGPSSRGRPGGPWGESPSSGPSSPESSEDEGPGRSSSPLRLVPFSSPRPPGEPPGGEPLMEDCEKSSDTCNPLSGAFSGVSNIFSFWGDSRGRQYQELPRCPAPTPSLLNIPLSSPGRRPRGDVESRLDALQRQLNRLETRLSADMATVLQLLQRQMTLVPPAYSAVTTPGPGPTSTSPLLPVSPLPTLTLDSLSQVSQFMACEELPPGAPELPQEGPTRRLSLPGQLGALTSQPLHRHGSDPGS

Compound	hERG current change (%, negative = inhibition) at 10uM [%]
COCCCNc1oc(-c2ccccc2F)nc1C#N	-5.33
COC(=O)c1ccc(/C=C/C(=O)O)cc1	11.9
COc1cccc(OC)c1C(=O)N1CCN(c2ccccn2)CC1	11
C/C(=N/NC(=O)c1cc(-c2ccc(Br)s2)[nH]n1)c1ccco1	-4.84
Cc1cccc(N2CCN(C(=O)C3CCN(S(=O)(=O)c4c(C)noc4C)CC3)CC2)c1C	-25.4
O=C(Nc1ccc(N2CCOCC2)nc1)c1ccc(C(F)(F)F)cc1	16.6
Cc1ccc(N2CC(C(=O)Nc3cc(C)on3)CC2=O)cc1 (stereo not drawn)	2.01
CC12CCC(C(=O)N(CC3CO3)C1=O)C2(C)C (stereo not drawn)	11.9
O=C(OCC(O)C(O)COC(=O)c1ccccc1)c1ccccc1 (stereo not drawn)	-2.63
CCOc1ccccc1NC(=O)Nc1cccc(S(N)(=O)=O)c1	1.76
COc1ccc(CN2C(=O)N(c3ccccc3)C(=O)C2CC(=O)Nc2ccccc2)cc1OC (stereo not drawn)	10.7
CN(C)c1ccc(C=C2C(=O)OC(C)(C(C)(C)C)OC2=O)cc1 (stereo not drawn)	3.05
CCOC(=O)c1ccc(S(=O)(=O)NNC(=O)c2ccc3c(c2)nc(C)n3CC)cc1	22.5
O=C1C2C3CCC(O3)C2C(=O)N1c1cccc(O)c1 (stereo not drawn)	13.7
O=C(CSc1nc2ccccc2[nH]1)Nc1ccc2c(c1)OCCO2	3.01
COc1ccc(NC(=O)CSc2nc(N)c3cc4c(nc3n2)CC(C)(C)OC4)cc1	0.776
COC(=O)[C@H](CC(C)C)NC(=O)NCc1ccc(Cl)cc1	0.763
O=C1N=C2SCCN2/C1=C\c1c(Cl)cccc1Cl	-5.29
Cc1ccc(S(=O)(=O)CCC(=O)Nc2nc(-c3ccncc3)cs2)cc1	-24
COCCOc1ccc(C(F)(F)F)cc1NC(=O)COC(=O)C1=COCCO1	-47.3
CN(C)CCn1c(=O)n(Cc2ccco2)c(=O)c2c3c(sc21)CCCCC3	-50.4
NC(=O)c1ccc(N=Nc2c(-c3ccccc3)[nH]n(-c3ccccc3)c2=O)cc1	0.511
Cc1ccccc1C(=O)NNC(=O)C1CCN(c2ncccn2)CC1	13.6

Compound	hERG current change (%, negative = inhibition) at 10uM [%]
O=C(CN1C(=O)NC(CCc2ccccc2)C1=O)NC1CC1 (stereo not drawn)	18.8
O=C1N/C(=N\N=C\c2cccs2)SC1Cc1ccc(Cl)c(Cl)c1 (stereo not drawn)	16.1
Cc1ccc(C(=O)N/N=C\c2cccs2)cn1	-6.13
O=C(COC(=O)c1ccc2c(c1)OCO2)Nc1ccccc1F	11.8
O=C(COC(=O)CCC1CCCC1)Nc1nc2c(F)c(F)c(F)cc2s1	13.5
C[C@@H](NC(=O)Cn1ccc(NC(=O)OCc2ccccc2)nc1=O)c1cccc2ccccc12	4.77
O=[N+]([O-])c1cccc(NC(=S)N2CCN(S(=O)(=O)c3ccccc3)CC2)c1	-16.3
Cn1c(=O)c2c(ncn2CC(=O)N/N=C/C(Cl)=C/c2ccccc2)n(C)c1=O	-25.5
O=C(c1ccc(-c2nc3ccccc3s2)s1)N1CCOCC1	-6.25
CCCn1nc(NC(=O)CC(C)C)c2cc3ccccc3nc21	12
CCn1c(SCc2cccnc2)nnc1-c1c[nH]c2ccccc12	-24
CCOc1ccc(C(=O)OCC(=O)NC2CCCC2)cc1OCC	8.34
O=C(NCc1ccco1)C(c1ccc(F)cc1)N(C(=O)Cc1cccs1)c1cccnc1 (stereo not drawn)	28.4
NC(=O)/C=C\C(=O)Nc1cccc(C(F)(F)F)c1	-3.45
CC1CCC2(CC1)NC(=O)N(NC(=O)c1cccs1)C2=O (stereo not drawn)	9.08
CCC(NC(=O)Nn1cnnc1)(C(F)(F)F)C(F)(F)F	5.79
C=CCC1NS(=O)(=O)OC(COC)C1C (stereo not drawn)	28.7
Cc1nc2c(-c3ccc(F)cc3)c(C)nn2c(C)c1CCC(=O)Nc1ccccc1	0.666
Cc1ccc(CNC(=O)CSc2c3c(nc4cc(Cl)ccc24)CCCC3)o1	-8.63
CCN(CC)/C(=N/S(=O)(=O)c1ccc(C)cc1)c1ccccc1	5.07
Cl.Cn1c(=O)c2c(nc(N3CCOCC3)n2CCNC2=NCCC2)n(C)c1=O	-0.137
Cc1ccc(C(=O)CSc2nnc(COc3ccccc3)o2)cc1	2.36
O=C(c1cccc(Br)c1)N1CCN(C(=O)c2cccc(Br)c2)CC1	-28.5

Compound	hERG current change (%, negative = inhibition) at 10uM [%]
C=CCc1cccc(/C=N/n2cnnc2)c1O	-4.97
COc1cc(/C=N/NC(=O)c2cc(C)n(-c3ccc(F)cc3)c2C)cc(OC)c1O	-13.4
Cc1[nH]n(-c2ccccc2)c(=O)c1C(C[N+](=O)[O-])c1ccc(Br)cc1 (stereo not drawn)	-9.61
C/C(=N\NC(=O)CCC(=O)NCc1ccccc1)c1ccco1	10.9
CC(C)N(C(=O)COC(=O)[C@@H]1CC(O)CN1S(=O)(=O)c1ccc(C(C)(C)C)cc1)C(C)C (stereo partly drawn)	-12.6
CC(C)NC(=O)NC(=O)COC(=O)C1CCCN1C(=O)c1cccs1 (stereo not drawn)	0.855
CCOc1ccc(NC(=O)c2ccc(NS(=O)(=O)c3cccs3)cc2)cc1	11
O=C(COc1ccc2ccccc2c1)N1CCN(C2CCN(Cc3ccccc3)CC2)CC1	-77.7
CCOc1ccccc1-c1cc(C(=O)N/N=C(\C)c2cccnc2)c2ccccc2n1	-2.45
COc1ccc(CN2CC(C(=O)NCCN3CCN(c4ccccc4F)CC3)CC2=O)cc1 (stereo not drawn)	-10.5
CC(C)N1CCN(CC#Cc2ccccc2)CC1CCO (stereo not drawn)	-9.9
Cn1nc(C(F)(F)F)c2cc(C(=O)Nc3ccc(F)cc3)sc21	-22.7
COc1ccc(C(=O)N/N=C/c2ccccn2)cc1OC	13.6
Cc1ccc(NC(=S)N(CCCN2CCC(C)CC2)Cc2ccco2)cc1	-72
CCC[n+]1c(C)sc2c3c(ccc21)CCCC3.[I-]	17
NC(=O)CSCc1nc2ccccc2s1	17.3
O=C(CCCN1C(=O)/C(=C/c2cccs2)SC1=S)Nc1cc([N+](=O)[O-])ccc1O	21.1
CC(NC(=O)C1CSC2(C)CCC(=O)N12)c1ccccc1Cl (stereo not drawn)	-8.44
S=c1[nH]nc(CN2CCCCC2)n1Cc1ccccc1	-5.08
CCN(CC)CCNC(=O)CCCCCn1c(=O)[nH]c2cc(C(=O)OC)ccc2c1=O	-3.88
C=CCN1C(=O)C2(OCCCO2)c2c(C)ccc(C)c21	-9.94
COCc1cc(C)nc2sc(C(=O)Nc3ccccc3C)c(N)c12	5.65
O=C(Nc1cccc(-c2cscn2)c1)C1CCN(Cc2ccsc2)CC1	-65

Compound	hERG current change (%, negative = inhibition) at 10uM [%]
N/C(=N\OC(=O)c1cccc(Br)c1)c1ccc([N+](=O)[O-])cc1	17.7
CCOC(=O)Cc1csc(NC(=O)CSc2nnc(-c3ccc(OC)cc3)n2C)n1	-8.6
C=CCC1(CC=C)CCCN1C(=O)c1cc(COc2cccc(OC)c2)on1	16.1
CCOCCCn1c(-c2ccc(Cl)cc2)n[nH]c1=S	4.13
CCn1c(=S)[nH]c2cc(C(=O)O)ccc21	31
O=C(CSCc1ccco1)NC1CCCC1	12.1
CCC(C)(C)NC(=O)C(c1ccc(F)cc1)N(Cc1cccs1)C(=O)c1cnccn1 (stereo not drawn)	-21.1
Cc1c(-c2nc(N)nc(Nc3ccccc3F)n2)oc2ccccc12	20.3
Cc1ccc(NS(=O)(=O)c2c(C)[nH]c(C)c2C(=O)N2CCCCC2)cc1F	12.5
CCc1cccc(C)c1NC(=O)COn1nnc2ccc(C(F)(F)F)cc21	0.291
CCNC(=O)CN(CCc1ccccc1)S(=O)(=O)c1ccc(OC)cc1	-26.2
O=C(CN1C(=O)NC(Cc2ccccc2)C1=O)Nc1ccc(F)c(Cl)c1 (stereo not drawn)	10.9
CN(C)S(=O)(=O)c1ccc(C(=O)OCC2CCCO2)cc1 (stereo not drawn)	14.6
CCCCNC(=O)CCSc1ccc(C)cc1	-2.9
CCn1ncc([C@@H]2C[C@H]3CN(Cc4cccc(Cl)c4)C(=O)[C@]34CCCN24)c1C	-33
Cn1nc(C(=O)Nc2ccc(S(=O)(=O)NCc3ccco3)cc2)c2ccccc2c1=O	27.4
Cc1cccc(NC(=O)CSc2nnc([C@H](C)NC(=O)OC(C)(C)C)o2)c1C	3.28
O=C1C(=O)N(CCCc2ccccc2)c2ccccc21	8.28
COc1cccc(NC2c3ccccc3C(=O)N2Cc2ccccc2Cl)c1 (stereo not drawn)	-12.7
CCOc1ccc(OCCn2c(SCC(=O)O)nc3ccccc32)cc1	-0.204
CC(NC(=O)C1CCN(S(=O)(=O)c2cccc3cccnc23)CC1)c1ccccc1 (stereo not drawn)	18.7
